The text below walks through data of PubChem BioAssay (NCI).

The test has as its system NCI-H322M lung. In words: NCI tumour cell line growth inhibition, 48 h.

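Values below derive from 48-hour exposures of cells grown in 96-well plates, with endpoints linearly interpolated between the two concentrations bracketing the appropriate inhibition level. Here, GI50 denotes the concentration required for 50% inhibition of growth. At the TGI there is no net growth.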

Regarding `O=C1c2c(c3c4cc(Br)ccc4[nH]c3c3ccc4ccccc4c23)C(=O)N1CCN1CCCCC1`, the GI50 is 1.82 µM and the TGI worked out at 5.01 µM.
